Results: the supplement of paper PMC10369915
This is one part of the list. No stated cut-off is given here; in the data, active = 3.2 or more and inactive = the rest. The signal is at background level for most entries.

Columns and labels:
Assay in all cases: enrichment score (SH2-bound / input frequency) (ratio); bacterial display of known human phosphotyrosine sites (pTyr-Var adds point mutants) read by sequencing; higher = stronger binding; tyrosines were phosphorylated by kinases first
Conditions in all cases: peptide library: pTyr-Var
SHP2 C-SH2 domain E139D = target: SHP2 C-SH2 domain E139D
[1] = target: SHP2 C-SH2 domain wild-type
SHP2 N-SH2 domain L43F = target: SHP2 N-SH2 domain L43F
SHP2 N-SH2 domain T42A = target: SHP2 N-SH2 domain T42A
SHP2 N-SH2 domain T52S = target: SHP2 N-SH2 domain T52S
[2] = target: SHP2 N-SH2 domain wild-type

Measured: enrichment score
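Further: displayed peptides selected on beads carrying the immobilized SH2 domain, with library peptides lacking any tyrosine serving as negative controls.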

KSPDSYQKILL [ATM_Y1415]
inactive: SHP2 C-SH2 domain E139D 0.729 | [1] 0.728 | SHP2 N-SH2 domain L43F 0.732 | SHP2 N-SH2 domain T42A 0.765 | SHP2 N-SH2 domain T52S 0.812 | [2] 0.672

FAELMYTGFWH [ASS1_Y322_V321M]
inactive: SHP2 C-SH2 domain E139D 1.7 | [1] 1.56 | SHP2 N-SH2 domain L43F 1.79 | SHP2 N-SH2 domain T42A 1.65 | SHP2 N-SH2 domain T52S 1.3 | [2] 1.65

LKGQVYILGGE [ASS1_Y359_R363G]
inactive: SHP2 C-SH2 domain E139D 1.06 | [1] 1.22 | SHP2 N-SH2 domain L43F 1.05 | SHP2 N-SH2 domain T42A 0.923 | SHP2 N-SH2 domain T52S 1.15 | [2] 1.36

LEGAKYVSHGA [ASS1_Y113_R108L]
inactive: SHP2 C-SH2 domain E139D 0.453 | [1] 0.482 | SHP2 N-SH2 domain L43F 0.321 | SHP2 N-SH2 domain T42A 0.439 | SHP2 N-SH2 domain T52S 0.321 | [2] 0.575

LFEDHYLLGTS [ASS1_Y87_R86H_YF]
inactive: SHP2 C-SH2 domain E139D 1.38 | [1] 1.21 | SHP2 N-SH2 domain L43F 1.39 | SHP2 N-SH2 domain T42A 1.08 | SHP2 N-SH2 domain T52S 1.06 | [2] 1.58

NDLMEYAKQHG [ASS1_Y163]
inactive: SHP2 C-SH2 domain E139D 0.988 | [1] 0.897 | SHP2 N-SH2 domain L43F 0.889 | SHP2 N-SH2 domain T42A 0.861 | SHP2 N-SH2 domain T52S 0.851 | [2] 1.08

LFEDRYLLGTS [ASS1_Y87_YF]
inactive: SHP2 C-SH2 domain E139D 0.938 | [1] 0.843 | SHP2 N-SH2 domain L43F 0.95 | SHP2 N-SH2 domain T42A 0.943 | SHP2 N-SH2 domain T52S 0.965 | [2] 0.759

NDPMEYAKQHG [ASS1_Y163_L160P]
inactive: SHP2 C-SH2 domain E139D 0.474 | [1] 0.6 | SHP2 N-SH2 domain L43F 0.562 | SHP2 N-SH2 domain T42A 0.463 | SHP2 N-SH2 domain T52S 0.43 | [2] 0.775

RVLKLYGCSPS [ASTL_Y279]
inactive: SHP2 C-SH2 domain E139D 0.443 | [1] 0.548 | SHP2 N-SH2 domain L43F 0.535 | SHP2 N-SH2 domain T42A 0.474 | SHP2 N-SH2 domain T52S 0.553 | [2] 0.812

LKGQVYILGRE [ASS1_Y359]
inactive: SHP2 C-SH2 domain E139D 0.497 | [1] 0.647 | SHP2 N-SH2 domain L43F 0.553 | SHP2 N-SH2 domain T42A 0.644 | SHP2 N-SH2 domain T52S 0.431 | [2] 0.563

HAVVDYMRRQK [ATM_Y1915_L1910H]
inactive: SHP2 C-SH2 domain E139D 0.406 | [1] 0.415 | SHP2 N-SH2 domain L43F 0.354 | SHP2 N-SH2 domain T42A 0.392 | SHP2 N-SH2 domain T52S 0.195 | [2] 0.304

QSSALYEDHFL [ASS1_Y83_R86H_YF]
inactive: SHP2 C-SH2 domain E139D 0.932 | [1] 0.773 | SHP2 N-SH2 domain L43F 0.714 | SHP2 N-SH2 domain T42A 0.678 | SHP2 N-SH2 domain T52S 0.799 | [2] 1.04

LAVVDYIRRQK [ATM_Y1915_M1916I]
inactive: SHP2 C-SH2 domain E139D 0.219 | [1] 0.353 | SHP2 N-SH2 domain L43F 0.257 | SHP2 N-SH2 domain T42A 0.217 | SHP2 N-SH2 domain T52S 0.253 | [2] 0.369

KSPDSYQKILP [ATM_Y1415_L1420P]
inactive: SHP2 C-SH2 domain E139D 0.781 | [1] 0.662 | SHP2 N-SH2 domain L43F 0.629 | SHP2 N-SH2 domain T42A 0.755 | SHP2 N-SH2 domain T52S 0.727 | [2] 0.63

FAELVYTVFWH [ASS1_Y322_G324V]
inactive: SHP2 C-SH2 domain E139D 2.23 | [1] 1.88 | SHP2 N-SH2 domain L43F 2.19 | SHP2 N-SH2 domain T42A 1.69 | SHP2 N-SH2 domain T52S 2.35 | [2] 2.01

RVLQLYGCSPS [ASTL_Y279_K277Q]
inactive: SHP2 C-SH2 domain E139D 0.633 | [1] 1.06 | SHP2 N-SH2 domain L43F 0.947 | SHP2 N-SH2 domain T42A 0.5 | SHP2 N-SH2 domain T52S 0.734 | [2] 1.1

LYEDRYLLGTS [ASS1_Y87]
inactive: SHP2 C-SH2 domain E139D 0.894 | [1] 1.02 | SHP2 N-SH2 domain L43F 0.894 | SHP2 N-SH2 domain T42A 0.814 | SHP2 N-SH2 domain T52S 1.09 | [2] 1.83

LYEDCYLLGTS [ASS1_Y87_R86C]
inactive: SHP2 C-SH2 domain E139D 0.996 | [1] 0.977 | SHP2 N-SH2 domain L43F 1.07 | SHP2 N-SH2 domain T42A 0.882 | SHP2 N-SH2 domain T52S 1.11 | [2] 1.27

QPSALYEDRFL [ASS1_Y83_S79P_YF]
inactive: SHP2 C-SH2 domain E139D 0.961 | [1] 0.923 | SHP2 N-SH2 domain L43F 0.713 | SHP2 N-SH2 domain T42A 0.873 | SHP2 N-SH2 domain T52S 0.73 | [2] 1.14
